The results in this text go back to patent US20240245709A1, “[…] USE IN TREATMENT OF E[…] EPILEPTICUS” (MARINUS PHARMACEUTICALS, INC., priority 2021, published 2024).

The subject of this assay is benzodiazepine-resistant SE. Briefly: Benzodiazepine-resistant SE in experimental animals.

`CC(=O)[C@H]1CC[C@H]2[C@@H]3CC[C@H]4C[C@](C)(O)CC[C@]4(C)[C@H]3CC[C@]12C` [ganaxolone, 3α-hydroxy-3β-methyl-5α-pregnan-20-one]: the “effect on benzodiazepine-resistant SE (block of convulsions, reduction of EEG seizure activity, increased survival)” value is “immediate and prolonged cessation”.
